Biological target: human IL-12 receptor on HEK-Blue IL-12 reporter cells (human, UniProt P42701 24-662; Q99665 24-862)
Assay: cell-based or functional assay

B1: IL-12 prodrug JR3.105.5 (prior to protease treatment) (Fc fusion)
chain 1: DKTHTCPPCPAPELLGGPSVFLFPPKPKDTLMISRTPEVTCVVVDVSHEDPEVKFNWYVDGVEVHNAKTKPREEQYASTYRVVSVLTVLHQDWLNGKEYKCKVSNKALPAPIEKTISKAKGQPREPQVYTLPPCRDELTKNQVSLWCLVKGFYPSDIAVEWESNGQPENNYKTTPPVLDSDGSFFLYSKLTVDKSRWQQGNVFSCSVMHEALHNHYTQKSLSLSPGAGGGGSGGGGSGGGGSIWELKKDVYVVELDWYPDAPGEMVVLTCDTPEEDGITWTLDQSSEVLGSGKTLTIQVKEFGDAGQYTCHKGGEVLSHSLLLLHKKEDGIWSTDILKDQKEPKNKTFLRCEAKNYSGRFTCWWLTTISTDLTFSVKSSRGSSDPQGVTCGAATLSAERVRGDNKEYEYSVECQEDSACPAAEESLPIEVMVDAVHKLKYENYTSSFFIRDIIKPDPPKNLQLKPLKNSRQVEVSWEYPDTWSTPHSYFSLTFCVQVQGKSKREKKDRVFTDKTSATVICRKNASISVRAQDRYYSSSWSEWASVPCSGGGGSGGGGSGGGGSRNLPVATPDPGMFPCLHHSQNLLRAVSNMLQKARQTLEFYPCTSEEIDHEDITKDKTSTVEACLPLELTKNESCLNSRETSFITNGSCLASRKTSFMMALCLSSIYEDLKMYQVEFKTMNAKLLMDPKRQIFLDQNMLAVIDELMQALNFNSETVPQKSSLEEPDFYKTKIKLCILLHAFRIRAVTIDRVMSYLNAS
chain 2: [sequence of human IgG1 Fc with changes not given]GGGGSGGGGSGPLGVRGGGGSDIQMTQSPSSLSASVGDRVTITCRASQGISSWLAWYQQKPEKAPKSLIYAASSLQSGVPSRFSGSGSGTDFTLTISSLQPEDFATYYCQQYNIYPYTFGQGTKLEIKGGGGSGGGGSGGGGSGGGGSEVQLVQSGAEVKKPGESLKISCKGSGYSFTTYWLGWVRQMPGKGLDWIGIMSPVDSDIRYSPSFQGQVTMSVDKSITTAYLQWNSLKASDTAMYYCARRRPGQGYFDFWGQGTLVTVSS
B1 was tested, and the “EC50 in the cell-based IL-12 reporter assay (HEK-Blue IL-12, STAT4-inducible SEAP, OD630)” value was roughly 0.9 nM.

From patent publication US20220356221A1 (ASKGENE PHARMA, published 2022)
